Results: the BET-seq Pho4 binding data (Le et al. 2018)
The other results are listed elsewhere or left out. These are noisy estimates, calculated here from bound and input reads.

molecular target: T1, Pho4 (S. cerevisiae) (UniProt P07270); assay: relative binding free energy (BET-seq); higher = weaker binding; conditions: reference: library average
T1 sequence: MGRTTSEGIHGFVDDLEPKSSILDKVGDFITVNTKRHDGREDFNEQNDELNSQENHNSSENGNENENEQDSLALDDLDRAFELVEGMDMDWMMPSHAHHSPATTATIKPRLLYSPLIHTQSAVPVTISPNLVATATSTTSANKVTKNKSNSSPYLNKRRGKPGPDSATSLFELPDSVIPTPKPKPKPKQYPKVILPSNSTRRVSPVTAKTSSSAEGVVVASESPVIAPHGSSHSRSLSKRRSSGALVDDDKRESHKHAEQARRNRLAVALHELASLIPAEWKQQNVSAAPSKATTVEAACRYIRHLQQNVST

Relative binding free energy, 0.34 kcal/mol:
CGGTTCACGTGTGGGA
TTAATCACGTGAGTGG

Relative binding free energy, 0.29 kcal/mol:
GGTTTCACGTGGTTCC
TGCTGCACGTGAAGTA
GGGTTCACGTGTAGGG

Relative binding free energy, 0.23 kcal/mol:
TGTCACACGTGTGGAG
GGCATCACGTGTTTAT

Relative binding free energy, -0.14 kcal/mol:
TTCGGCACGTGTGCGT
TTGGGCACGTGCAGAA

Relative binding free energy, -0.07 kcal/mol:
AGTAACACGTGGGGGT
AGCGGCACGTGTGCAG

Relative binding free energy, 0.25 kcal/mol:
TTGATCACGTGCGGAG
ATTGTCACGTGAGGTG
GGAGCCACGTGAATGT
GTGCTCACGTGTGTCT

Relative binding free energy, 0.19 kcal/mol:
ATTTTCACGTGGGTTG
TCTTGCACGTGAGGGT
GGACTCACGTGTATGG

Relative binding free energy, 0.04 kcal/mol:
CTGGTCACGTGGTCGA
TGACTCACGTGGGGAG
TTCGTCACGTGGTGGT
TAGCTCACGTGGGGTT
GGAGCCACGTGTGTTA

Relative binding free energy, -0.16 kcal/mol:
GTTTGCACGTGGTCAG

Relative binding free energy, 0.35 kcal/mol:
TGATTCACGTGAGCTT
AAGCTCACGTGAGGGT

Relative binding free energy, 0.38 kcal/mol:
TGTTTCACGTGCAAGT
CGCATCACGTGAGGGG
AGGGTCACGTGATTTT
GGGTTCACGTGTATCT
AAGAACACGTGAAGTG

Relative binding free energy, 0.45 kcal/mol:
GTTTTCACGTGTGAAC

Relative binding free energy, 0.26 kcal/mol:
GTGGGCACGTGAAAAG

Relative binding free energy, 0.01 kcal/mol:
AAGGCCACGTGAGTGT
GGCAGCACGTGTGAGG

Relative binding free energy, -0.34 kcal/mol:
TATAGCACGTGGTATT

Relative binding free energy, 0.18 kcal/mol:
TAGTTCACGTGGCTTA
GGCCTCACGTGGGAGG
GGTATCACGTGTGCTT
TTATTCACGTGTGGTC

Relative binding free energy, -0.18 kcal/mol:
TGAAGCACGTGCGTGG

Relative binding free energy, 0.28 kcal/mol:
GAGTGCACGTGAGGAG
ACGCTCACGTGTGGGT
AAATGCACGTGAAAGG
TTGTTCACGTGATACG

Relative binding free energy, -0.06 kcal/mol:
TGGGTCACGTGCCATG
TGCGGCACGTGTTTGT
GATGGCACGTGTGAGA

Relative binding free energy, 0.31 kcal/mol:
GGATTCACGTGTTATC
CCTTTCACGTGTTATG
CATTTCACGTGTCGGG
TAGATCACGTGTGGTT

Relative binding free energy, -0.11 kcal/mol:
TTTGGCACGTGACTAG
TGATCCACGTGTATGT
AGGGGCACGTGGGATT
ATAGCCACGTGCGTGT
TTGGGCACGTGCAGGG
TAAAGCACGTGTTGGT

Relative binding free energy, 0.36 kcal/mol:
GAGTTCACGTGGACTG

Relative binding free energy, -0.05 kcal/mol:
GTGGGCACGTGGCGGG
GGCAGCACGTGTTGTT
AGGGACACGTGTAAGG
TGATCCACGTGTGGTG
ACGGTCACGTGGGGGT

Relative binding free energy, 0.33 kcal/mol:
ATGTGCACGTGAATTT

Relative binding free energy, -0.08 kcal/mol:
GGAAGCACGTGATAGG
ATTTGCACGTGGGTAA
TAGTGCACGTGGGTTA
ATGTGCACGTGGTTCG
TGTGGCACGTGCACTG
GGTGGCACGTGTCAAT

Relative binding free energy, 0.22 kcal/mol:
GGGGCCACGTGAAGGA

Relative binding free energy, -0.31 kcal/mol:
ATTGGCACGTGGTCTA

Relative binding free energy, 0.06 kcal/mol:
ATTTGCACGTGTCTTT
GTTTGCACGTGGACTG
AATGGCACGTGTGGTT
ATTTACACGTGGCGGG
ATTTGCACGTGTATTC
TGTTCCACGTGGATAG
GGGAGCACGTGGATTC
GACATCACGTGGGTTG
AATGTCACGTGGTTTG

Relative binding free energy, 0.14 kcal/mol:
GGGTCCACGTGTGATG
CAATGCACGTGAGTGT
TGTATCACGTGGGAAA

Relative binding free energy, 0.37 kcal/mol:
GGTTTCACGTGTTAGT

Relative binding free energy, 0.1 kcal/mol:
TCTTGCACGTGAGCGT
TTTGACACGTGATATG
ATGGACACGTGTGACG
GTTGGCACGTGTGTTG
TGGTACACGTGGATTA
AAGTTCACGTGGGTGG
TTGTGCACGTGAGGCC
CAGGGCACGTGGAATT
TGTTACACGTGTATGC
TAGTTCACGTGGTCAG

Relative binding free energy, 0.09 kcal/mol:
ATGTACACGTGATTGG
GTATGCACGTGATGAT
AATTACACGTGTTGGA
CTGATCACGTGTGTTA
AGTGTCACGTGTGGCC
CTGGTCACGTGTAGGT
TATGTCACGTGGATCA

Relative binding free energy, 0.03 kcal/mol:
AGGGGCACGTGACTAT
GTGCGCACGTGTCGGT
GTCGGCACGTGATAGT
TTGTACACGTGTCATG
ATAGTCACGTGCTAGG
GTGTACACGTGCTTGA
GGAATCACGTGTGGCT

Relative binding free energy, -0.23 kcal/mol:
GTGGCCACGTGGGTCT

Relative binding free energy, -0.1 kcal/mol:
GTATGCACGTGCTAGG
TATTGCACGTGGCAGA

Relative binding free energy, 0.07 kcal/mol:
ACTGTCACGTGGTGAG
AGTTCCACGTGTGGTT
TTAGTCACGTGGGAAG
TGCTACACGTGTGGTA
TAGACCACGTGATGGG
TATATCACGTGGAGGG
CTGATCACGTGTTTGT
TTAGTCACGTGGTAAT

Relative binding free energy, -0.21 kcal/mol:
TGGGGCACGTGCTTCG
CAGGGCACGTGCGTGT

Relative binding free energy, 0.17 kcal/mol:
CGGTTCACGTGTTGCG
GGTAGCACGTGGAAGG
GGATGCACGTGATAAG

Relative binding free energy, 0.11 kcal/mol:
TTCATCACGTGCGGTT
AATTTCACGTGGTGTG
TAAGACACGTGATGGG
TATGTCACGTGACGAG
GGGTACACGTGTAGGG

Relative binding free energy, -0.03 kcal/mol:
TGTGGCACGTGGATCT
TGTGGCACGTGTTATC
ATGGACACGTGTCGGG
TGATGCACGTGGTTGA
CTGGACACGTGTTTGG
TTTTGCACGTGCTTTG

Relative binding free energy, 0.02 kcal/mol:
TGGATCACGTGGGGTA
AAGTGCACGTGTAGAG
AGTTACACGTGGGGCG
TCGGACACGTGTTAGT
TTGGTCACGTGCGTTA
AGTTGCACGTGTCTGG

Relative binding free energy, -0.27 kcal/mol:
TAAGCCACGTGGTGTG

Relative binding free energy, -0.2 kcal/mol:
GGTGGCACGTGGGGCG
AGAGGCACGTGCCGGT
AAGGGCACGTGGCTTG

Relative binding free energy, -0.13 kcal/mol:
GTAGGCACGTGTAGAG

Relative binding free energy, 0.21 kcal/mol:
TTAGGCACGTGAGCTT
ATAATCACGTGGAATT
TGAATCACGTGGGAAA
TTTCACACGTGATAGG
AGGCACACGTGAGGGG
TAAATCACGTGAGTGT
TGTATCACGTGTGCGC

Relative binding free energy, 0.08 kcal/mol:
AATGACACGTGGAGGA
TCTGTCACGTGTGTTA
TTTAGCACGTGGAATT
CGGATCACGTGTCGGT
TAGGACACGTGTGGCG

Relative binding free energy, -0.04 kcal/mol:
GATAGCACGTGGCCGG
TTCTGCACGTGGAGTA
GAAGGCACGTGTGAGT
AGTAGCACGTGGTATG

Relative binding free energy, -0.32 kcal/mol:
TGCAGCACGTGGGCGT

Relative binding free energy, 0.16 kcal/mol:
AGGTACACGTGTATTC
GTACTCACGTGGTAGT
GTGTACACGTGTTATA
TTTTCCACGTGTTAGT
AGGGACACGTGTGGAA
TTCTACACGTGTTAGT

Relative binding free energy, -0.01 kcal/mol:
AATTGCACGTGTGGCA
GGTTGCACGTGGTTCT
TTGGACACGTGGGTAT
AATGACACGTGTGTAA
ATAGTCACGTGCTGGA

Relative binding free energy, 0.3 kcal/mol:
TGTGACACGTGAAGGC

Relative binding free energy, -0.02 kcal/mol:
CGGGACACGTGTGTGC
CTGGACACGTGGTGCG
CGGGGCACGTGTTAAA
TGGGCCACGTGTTTGC
TTCCGCACGTGTTGTT
GGTGGCACGTGCTGTG

Relative binding free energy, -0.25 kcal/mol:
TGGGCCACGTGGGTCA

Relative binding free energy, -0.19 kcal/mol:
ATAGGCACGTGTTCGG

Relative binding free energy, -0.28 kcal/mol:
AGGCGCACGTGGTGTG

Relative binding free energy, -0.09 kcal/mol:
GCTGGCACGTGCTGGT
AAAGTCACGTGGGAGG
TATTGCACGTGGTTAT
CAATGCACGTGGTAGT

Relative binding free energy, 0.2 kcal/mol:
GTGTGCACGTGATAGG
TTATCCACGTGTGGTG
TGTTTCACGTGCCAGG
CTTATCACGTGATATT

Relative binding free energy, 0.4 kcal/mol:
AATCTCACGTGAGGTA
GGTTTCACGTGACTTT
CGGGTCACGTGAGAAG
CGTTTCACGTGAGATT

Relative binding free energy, 0.24 kcal/mol:
GTGTTCACGTGGAGTC
CGGTTCACGTGGTAGA

Relative binding free energy, 0 kcal/mol:
AGTATCACGTGGTGTG
GAGTGCACGTGGTCCG
AGGTGCACGTGTTCGG
ATTGTCACGTGCTGGC
TGCGTCACGTGTTGCT
TGTCGCACGTGGAAGG
TTTGGCACGTGATGTG

Relative binding free energy, 0.27 kcal/mol:
TAATTCACGTGTTAGC
TTTTTCACGTGTTGGC

Relative binding free energy, 0.49 kcal/mol:
GGTTTCACGTGATCAT

Relative binding free energy, -0.12 kcal/mol:
TTGGGCACGTGGGACT

Relative binding free energy, 0.32 kcal/mol:
ACTGTCACGTGAAAGG

Relative binding free energy, 0.13 kcal/mol:
ACTATCACGTGGTAGG
GGCTGCACGTGTGATT
GGCTTCACGTGCTGTT
TAAGCCACGTGAGGGT
TTGTACACGTGTGGAA
TTCAGCACGTGAGTTG
AGTTTCACGTGCGGGC

Relative binding free energy, -0.15 kcal/mol:
TATATCACGTGGGTTA

Relative binding free energy, 0.15 kcal/mol:
TTTAACACGTGGAGAT
GTGTACACGTGCGGTG

Relative binding free energy, 0.05 kcal/mol:
GTGAACACGTGTGGCA
TTTGTCACGTGGTCCT
TGTGACACGTGGTGGA

Relative binding free energy, 0.12 kcal/mol:
TAAAACACGTGTAGTA
GTTCTCACGTGCGGGG
TTGGACACGTGTTAGG
GAGGTCACGTGCGGTA
TATGACACGTGTGATG
